Experimental findings from patent US4988691A (priority 1989, dated 1991) are described below.

The structures appear in SMILES notation. Counter-ions that a name gives are not always drawn.

The assay has as its system alpha1 -adrenergic receptors. As to conditions: 3H-prazosin; table head 1nM (method: 0.5 nM); rat cerebral cortex membranes.

With `Cc1cc(C(=O)O[C@H]2C[C@H]3CC[C@@H](C2)N3C)on1` [Compound 5, 3-methylisoxazole-5-carboxylic acid 3-(endo-8-methyl-8-azabicyclo[3,2,1]octyl) ester hydrochloride], the “Displacement activity at α1-adrenergic receptors” value was “inactive”.
In the case of `Cc1cc(C(=O)O[C@H]2C[C@H]3CC[C@@H](C2)N3C)no1` [Compound 8, 5-methylisoxazole-3-carboxylic acid 3-(endo-8-methyl-8-azabicyclo[3,2,1]octyl) ester hydrochloride], the “Displacement activity at α1-adrenergic receptors” value is “inactive”.
